This note sets out measurements from patent publication US20030232797A1, “Novel derivatives of androstane and androstene with ascorbic acid and use thereof in treating or preventing various conditions, diseases, and disorders” (priority 2002, published 2003).

The procedure of this data set:
Selected derivatives formed in accordance with the present invention were tested for solubility using the following protocol: Into an 1 ml glass vial was added 50 mg of the sample to be tested. Water (or other desired solvent) was added portion by portion (50 micro liter per portion) at an interval of 10 minutes until a clear solution was obtained. An ultrasonic bath was employed to enhance the solubilizing process. The weight of the water
added was determined by an analytical balance.

As to “Ascorbyl phosphate of 5α-androststan-3β-ol-17- one, Disodium salt”, the Solubility in ethanol entry is “Soluble in water (9.5%, w/w) Slightly soluble in ethanol” and the Solubility in water entry was “Soluble in water (9.5%, w/w) Slightly soluble in ethanol”.
